Assays:
Assay in all cases: Saccharide competition of SP-D binding to BSA-mannan coated plates
Details in all cases: averages of three experiments, SD in parentheses
pSP-D = target: T1, pSP-D (Sus scrofa, UniProt Q9N1X4); design: species or system porcine
T1 sequence (Q9N1X4 21-378): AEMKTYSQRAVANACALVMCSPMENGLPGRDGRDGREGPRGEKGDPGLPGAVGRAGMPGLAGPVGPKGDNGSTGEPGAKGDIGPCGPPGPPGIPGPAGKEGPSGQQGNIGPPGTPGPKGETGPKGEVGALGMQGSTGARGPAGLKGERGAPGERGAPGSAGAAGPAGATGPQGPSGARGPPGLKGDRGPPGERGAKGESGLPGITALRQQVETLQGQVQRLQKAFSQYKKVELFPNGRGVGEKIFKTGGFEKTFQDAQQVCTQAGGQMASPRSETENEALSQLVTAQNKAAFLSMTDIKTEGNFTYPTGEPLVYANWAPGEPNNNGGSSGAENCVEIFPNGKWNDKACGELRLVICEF

hSP-D = target: T2, hSP-D (Homo sapiens, UniProt P35247)
T2 construct: The full-length recombinant collectins pSP-D and hSP-D were constructed as published; made in house; host or cells: HEK293 (HEK293E, transient transfection)
T2 sequence (P35247 21-375): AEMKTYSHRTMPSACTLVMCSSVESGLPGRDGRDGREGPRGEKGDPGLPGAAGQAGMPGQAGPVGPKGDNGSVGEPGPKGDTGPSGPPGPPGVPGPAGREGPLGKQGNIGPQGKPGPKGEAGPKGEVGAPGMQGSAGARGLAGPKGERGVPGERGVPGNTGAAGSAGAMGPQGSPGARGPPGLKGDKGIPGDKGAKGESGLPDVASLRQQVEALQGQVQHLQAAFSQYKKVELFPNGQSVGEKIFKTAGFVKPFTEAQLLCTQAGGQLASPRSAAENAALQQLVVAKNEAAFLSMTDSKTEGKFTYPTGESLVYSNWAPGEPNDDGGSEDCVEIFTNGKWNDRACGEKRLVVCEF

iSP-D = target: T3, iSP-D (Homo sapiens, UniProt P35247, D344N/D350N/E309K/INS346GSS/K307Q/V271E)
T3 construct: Full-length recombinant iSP-D was generated based upon the full-length hSP-D cDNA clone; made in house; host or cells: HEK293 (HEK293E, transient transfection)
T3 sequence (P35247 with tags, fused parts or gaps V271E/K307Q/E309K/D344N/INS346GSS/D350N): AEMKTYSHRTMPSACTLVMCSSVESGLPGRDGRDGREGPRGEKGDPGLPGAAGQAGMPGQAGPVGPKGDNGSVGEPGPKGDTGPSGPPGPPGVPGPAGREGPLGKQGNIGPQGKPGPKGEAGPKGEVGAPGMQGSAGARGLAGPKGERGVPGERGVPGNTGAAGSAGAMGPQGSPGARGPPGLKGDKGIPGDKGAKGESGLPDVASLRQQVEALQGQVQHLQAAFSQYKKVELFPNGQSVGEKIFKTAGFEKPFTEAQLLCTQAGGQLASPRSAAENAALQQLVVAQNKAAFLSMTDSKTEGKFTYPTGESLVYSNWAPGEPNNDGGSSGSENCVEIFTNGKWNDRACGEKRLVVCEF

SMILES	IC50 (pSP-D) [mM]	IC50 (hSP-D) [mM]	IC50 (iSP-D) [mM]
OC[C@H]1O[C@H](O[C@H]2[C@H](O)[C@@H](O)C(O)O[C@@H]2CO)[C@H](O)[C@@H](O)[C@@H]1O (mixture of isomers) [Maltose, maltose]	2	3.3	4.1
OC[C@H]1OC(O)[C@@H](O)[C@@H](O)[C@@H]1O (stereo partly drawn) [D-Mannose, D-mannose]	4.6	3.6	5.3
C[C@H](O)[C@@H](O)[C@@H](O)[C@H](O)C=O [L-Fucose, L-fucose]	2.2	3.8	4.3
O[C@H]1[C@H](O)[C@@H](O)[C@H](O)[C@@H](O)[C@H]1O [Myo-Inositol, myo-inositol]	0.9	5.6	17.3

Source: paper PMC6842947, “Enhanced Antiviral Activity of Human Surfactant Protein D by Site-Specific Engineering of the Carbohydrate Recognition Domain” (Frontiers in Immunology, 2019)
